Test results as given in PMC7819943, “Rice protein-binding microarrays: a tool to detect cis-acting elements near promoter regions in rice”.
The list shows a part of the results.

What follows are sequences tested against T1, OsWOX13 (Oryza sativa, UniProt Q5QMM3 1-267) (assay: protein-binding microarray (RPBM); PBS, 2% BSA, 51.3 ng/ul salmon testes DNA, 50 uM zinc acetate, 200 nM TF, 25 C, 1 h; high values mean tight binding). Conditions: protein: recombinant; tags: N-terminal polyhistidine and DsRed monomer fusion (pET32a); label: CyDye5-dUTP incorporated in the synthesized complementary strand; 3' TTTTT single-stranded linker to array surface; dsDNA, one strand shown.
T1 sequence: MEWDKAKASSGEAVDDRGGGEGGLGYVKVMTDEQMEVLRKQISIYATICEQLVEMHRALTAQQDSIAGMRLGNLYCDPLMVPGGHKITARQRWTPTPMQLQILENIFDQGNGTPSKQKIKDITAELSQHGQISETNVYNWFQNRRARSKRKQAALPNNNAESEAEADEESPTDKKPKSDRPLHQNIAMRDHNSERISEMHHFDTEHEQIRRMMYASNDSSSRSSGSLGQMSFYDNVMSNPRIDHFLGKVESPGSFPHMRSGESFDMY
How it was run: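 The binding signal is fluorescence intensity per feature, in arbitrary units, read on an Axon 4000B scanner. Polyhistidine- and DsRed-tagged transcription factors (N-terminal fusions) from E. coli BL21-CodonPlus were purified on Ni–NTA and applied at 200 nM for 1 h at 25 °C to a double-stranded, BSA-blocked custom Agilent array in buffer with 50 µM zinc acetate.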

Sequence	binding signal
CCATATCAATCTCATATAAACTGGATTAGGGCTATTACCTCGGAGTCACCTAGTGCAG	23100 fluorescence intensity (a.u.)
TTTTGTTTATCAGTTTGTGATTTAATTCCGTTTTCGCCTACGGAGTCACCTAGTGCAG	7150 fluorescence intensity (a.u.)
GATAAATTGAGGGACCTAGAGAGAGAACTTATTCATTTTACGGAGTCACCTAGTGCAG	3330 fluorescence intensity (a.u.)
GAAGGGGTGATTATTATCAAGCGGTGACCCTTATTGGTGTCGGAGTCACCTAGTGCAG	4290 fluorescence intensity (a.u.)
TGAAACACAATCAAATCATCTCATAAAACATTTTGTTACACGGAGTCACCTAGTGCAG	4620 fluorescence intensity (a.u.)
CAAGATTGTGACTCTGACCAGTAACACCGGCACACTTGCACGGAGTCACCTAGTGCAG	4930 fluorescence intensity (a.u.)
TATTAACATCAGTGGTAATTAATTAAGCATCTCCAATCAACGGAGTCACCTAGTGCAG	10200 fluorescence intensity (a.u.)
ATAGATTGAATTATACTTGAAAGTATAACTGTGTCAGATACGGAGTCACCTAGTGCAG	21500 fluorescence intensity (a.u.)
ACTATAGTGTAATTACGGTGTAACTATATAAGTACACTTACGGAGTCACCTAGTGCAG	3740 fluorescence intensity (a.u.)
GGGGATTAATGGATTATAATGTGTCTTATAACTAAAAGGACGGAGTCACCTAGTGCAG	15100 fluorescence intensity (a.u.)
TGTATTATGATTAATTGGACCAATTGGTTTCGATGGAATACGGAGTCACCTAGTGCAG	39800 fluorescence intensity (a.u.)
ATCTCGTTTTAGGCTAATTAACAGGTTTTGGAGCCTTCCTCGGAGTCACCTAGTGCAG	4930 fluorescence intensity (a.u.)
TTAACAATTATTAGTCCACACAAAAGATCTATAATTATGGCGGAGTCACCTAGTGCAG	7900 fluorescence intensity (a.u.)
CAAATTAGGTGTGATGACAATTGTACTACTTATGAACCGTCGGAGTCACCTAGTGCAG	13400 fluorescence intensity (a.u.)
TTTATTAATTAAAACTCAATTAATAACACGTTATTACCACCGGAGTCACCTAGTGCAG	20600 fluorescence intensity (a.u.)
TGGATTGACAAAGTCACAAAACTACAGCGCACCAGTGAGCCGGAGTCACCTAGTGCAG	20200 fluorescence intensity (a.u.)
ATCCAATCATAACCCTCCACCACTCACTTCTACCTACTTTCGGAGTCACCTAGTGCAG	6040 fluorescence intensity (a.u.)
TCCACTCGTCTTAATTAGTCTCCACCAATTCTCTCTTTCTCGGAGTCACCTAGTGCAG	6350 fluorescence intensity (a.u.)
CCCAATTAACTCTCAGTCTCGTTGGGCCACACGCAAAGCACGGAGTCACCTAGTGCAG	9690 fluorescence intensity (a.u.)
AAATGATTGGAGCTAATAGTTGGCTATACTATTAAACTTGCGGAGTCACCTAGTGCAG	44000 fluorescence intensity (a.u.)
CTAGCAATTATTATCTAGAGTATTTTAAGTATCACGCAAACGGAGTCACCTAGTGCAG	3700 fluorescence intensity (a.u.)

Sequence	binding signal
TTAAATAGAATGCTGACTGAACTGTCACGTGTAGACCAAACGGAGTCACCTAGTGCAG	23400 fluorescence intensity (a.u.)
CATTCTTGGGGATTGACTAAGCAAACCATTAGGGTGCCGGCGGAGTCACCTAGTGCAG	5380 fluorescence intensity (a.u.)
TTTAATTTTAGCGTGAACCAAACTTTATCGCACGGTGCTACGGAGTCACCTAGTGCAG	7490 fluorescence intensity (a.u.)
TACGTTAATTTATACTGCGTTTCACAGTGCATTTAGTGGACGGAGTCACCTAGTGCAG	29600 fluorescence intensity (a.u.)
ACTCGAAATTTGTTGGGAACTCATCAGAGATAGACTGGAGCGGAGTCACCTAGTGCAG	3700 fluorescence intensity (a.u.)
ATAAAATTATCTATTCCACATAAATTTCAAAAGATATGATCGGAGTCACCTAGTGCAG	5590 fluorescence intensity (a.u.)
CCGTTTGATTTGTAACGTAACCTGTGTGTTACATTGTCAGCGGAGTCACCTAGTGCAG	34500 fluorescence intensity (a.u.)
CTGTCAATCCCATTCCCATTCCCATTCCCATTCCCTCCCCCGGAGTCACCTAGTGCAG	6860 fluorescence intensity (a.u.)
CAAGACGTAGCTGATTTGAATTAATCAAGAGAAGCTTGTGCGGAGTCACCTAGTGCAG	11400 fluorescence intensity (a.u.)
ACCTGGCAATCACTCAACAAACAACAAATCCAAGTGTACGCGGAGTCACCTAGTGCAG	9850 fluorescence intensity (a.u.)
CAGATAATTAGCTACCTGTTTAATAGATCATCTTGATCATCGGAGTCACCTAGTGCAG	53400 fluorescence intensity (a.u.)
CCCTAATTTCTCAGCCCGGCTGTATGATAAATCTGAAATGCGGAGTCACCTAGTGCAG	8460 fluorescence intensity (a.u.)
AGTCAACACTTAAATTAATAAGATTAGCCCCATGTAGTATCGGAGTCACCTAGTGCAG	3500 fluorescence intensity (a.u.)
GTCAAAATGTCACTTAATTTAGTATCGAATGGTTGCAAGTCGGAGTCACCTAGTGCAG	8250 fluorescence intensity (a.u.)
GTCTACTTCTAAATTTGTATTAGTTAACTCTTTAATTCGTCGGAGTCACCTAGTGCAG	3260 fluorescence intensity (a.u.)
TAATCATTTTCTATCACAGGTTTAAACAGAATCAACTTGTCGGAGTCACCTAGTGCAG	4020 fluorescence intensity (a.u.)
TCTTGGACTGATTAATCGATTGGTTGATTTCTATCCCTCACGGAGTCACCTAGTGCAG	32300 fluorescence intensity (a.u.)
AGTGACCAATCATTAGGTGATAAATCCCATATGCTTTTGTCGGAGTCACCTAGTGCAG	10800 fluorescence intensity (a.u.)
TTGTTAATTGAGTGTGAAAGAGAGATGTTTTGCTTCAGCTCGGAGTCACCTAGTGCAG	44400 fluorescence intensity (a.u.)
AGACAAATCTTTTGAGTCTAATTACGTCATGATTTGACCACGGAGTCACCTAGTGCAG	13400 fluorescence intensity (a.u.)
AATTAATTTATAGCTCACTATTATCTATGCTATAAGGCAGCGGAGTCACCTAGTGCAG	28800 fluorescence intensity (a.u.)

Sequence	binding signal
GTGGTTTGATTAATACTCCTACAAAGCAAGCATGCATGTGCGGAGTCACCTAGTGCAG	6260 fluorescence intensity (a.u.)
CCATAGTAATTTCAAATGATTGGATAGGATTTAATCCTTTCGGAGTCACCTAGTGCAG	33800 fluorescence intensity (a.u.)
CTATTAATAAATATATATGATTATACTGAAGTAATTTTCACGGAGTCACCTAGTGCAG	8300 fluorescence intensity (a.u.)
CATATTAAATTTATCATATATTTCTCATTTCATGTGTGGCCGGAGTCACCTAGTGCAG	16500 fluorescence intensity (a.u.)
TTGTAATTACTTCATCCTGAATTTTCTCTGAACCCACAATCGGAGTCACCTAGTGCAG	22400 fluorescence intensity (a.u.)
CTAAAATGAATAAAACTAGTACTACAAATTTAGAACGGTACGGAGTCACCTAGTGCAG	4180 fluorescence intensity (a.u.)
CTCATGATTTACGGCTGCTGGCCGCCGGGCTATTTAACCACGGAGTCACCTAGTGCAG	10900 fluorescence intensity (a.u.)
CGAACATTAATTACCAAGGTACAAAACCGAATCGCCCCTACGGAGTCACCTAGTGCAG	11400 fluorescence intensity (a.u.)
GTATCAATACACCTTTATTGATAATTAGATCTTTGGTTCTCGGAGTCACCTAGTGCAG	11100 fluorescence intensity (a.u.)
CAAATCAGTTGATTTCTTCCCTAAACGGTATAAACGCCTGCGGAGTCACCTAGTGCAG	5200 fluorescence intensity (a.u.)
CATAATTACTTCATGGACCTGTGGTGCTTAGCTATATTCTCGGAGTCACCTAGTGCAG	16100 fluorescence intensity (a.u.)
ATGTTACTTGATTAATTACATGCCGCTTGCGTAACTACTTCGGAGTCACCTAGTGCAG	22000 fluorescence intensity (a.u.)
TCAAAATTGGAAGTTTTGTTGAAATTGAAACAATGTGATGCGGAGTCACCTAGTGCAG	19500 fluorescence intensity (a.u.)
CTTAATAGCCAATTCATAACAATAGTTACAATTAATACTACGGAGTCACCTAGTGCAG	6980 fluorescence intensity (a.u.)
AGAGAGACTGTAATTGGTCACGTCTGTGAAAATCATCCTTCGGAGTCACCTAGTGCAG	7360 fluorescence intensity (a.u.)
TTTAAATAAGTATAATCAAATGCTATCATGAACGCCAGATCGGAGTCACCTAGTGCAG	3510 fluorescence intensity (a.u.)
CGGTTTTGATTAGTTAAGGGACGGCCGATATCTAGTTTTGCGGAGTCACCTAGTGCAG	35400 fluorescence intensity (a.u.)
TTTAATTACGGGGTATAGTAATAAGTTTTGTGGCAGTCAACGGAGTCACCTAGTGCAG	14300 fluorescence intensity (a.u.)
TTCTAATTTCAATCAAACTTTCAATTTTGACGTGAACTAACGGAGTCACCTAGTGCAG	43100 fluorescence intensity (a.u.)
TGTTAATTAGAAAAGAAGGAATTCTTAGGCTCGGTGAAACCGGAGTCACCTAGTGCAG	14200 fluorescence intensity (a.u.)
GCCGCTCAATTGATTGGTCGATAGCATAAAAGTAATTGGTCGGAGTCACCTAGTGCAG	44700 fluorescence intensity (a.u.)

Sequence	binding signal
TCGCCGATTGATACATACATCATCCAAGCAGAGCAATCACCGGAGTCACCTAGTGCAG	19300 fluorescence intensity (a.u.)
GCTGACATAATTGCTTGTTGGGATTCTTGGGAGGAAATGGCGGAGTCACCTAGTGCAG	35300 fluorescence intensity (a.u.)
CATCAACATATAATTGATTAAATATTAATTATAACAAACTCGGAGTCACCTAGTGCAG	45700 fluorescence intensity (a.u.)
TATATAAATTGCTCTCTAATGCATTATAAAGCAAATAGCACGGAGTCACCTAGTGCAG	12400 fluorescence intensity (a.u.)
TCTTGATTGAAACAATCTTTTGATCCCATAATCTTGCCCGCGGAGTCACCTAGTGCAG	63700 fluorescence intensity (a.u.)
AATAATAGAGATAATTTGTTTAGCGCTTCTAACATGTGTACGGAGTCACCTAGTGCAG	30400 fluorescence intensity (a.u.)
AGACAAATGAATTGTTCATTACCACCGTCCCACAATCACACGGAGTCACCTAGTGCAG	3700 fluorescence intensity (a.u.)
CCCATCATCAATTACCGATGTGGGACTAAACCCAACAACGCGGAGTCACCTAGTGCAG	15700 fluorescence intensity (a.u.)
TGTGTTCTTGATTTGTGTTGTGTTTGTAGATCGTAGTTTGCGGAGTCACCTAGTGCAG	10200 fluorescence intensity (a.u.)
TCAAAATTTAAGTCATTTTACTCAAATGCACCAACAAGCACGGAGTCACCTAGTGCAG	4550 fluorescence intensity (a.u.)
AACCCTTTAATTTGTTCTTTGCTTCTTTAATCGTTGTTGACGGAGTCACCTAGTGCAG	6540 fluorescence intensity (a.u.)
ATGATTTACCTGATCGTCAGGGACCGGTTTTCACCTTAAACGGAGTCACCTAGTGCAG	4540 fluorescence intensity (a.u.)
AAAATTACGGTCAAATTGTGCTAATCCATGGATTCAAATTCGGAGTCACCTAGTGCAG	4820 fluorescence intensity (a.u.)
CTTCAAGATTGACCGAGGGTGTTTGAAGTAGGTTTACCCCCGGAGTCACCTAGTGCAG	15300 fluorescence intensity (a.u.)
TTCTAATTACTATTTAAGCTTATCCTAATTAACTCACATGCGGAGTCACCTAGTGCAG	33500 fluorescence intensity (a.u.)
CTTGACAAATTCCCTTCTGGGCTAACAAAACGAGTAATATCGGAGTCACCTAGTGCAG	3390 fluorescence intensity (a.u.)
AACTAATTACACAGTTAGGGAGGAAATCGCGAGACAAATCCGGAGTCACCTAGTGCAG	19600 fluorescence intensity (a.u.)
TCTTTCTGATTTATGAATACATGATCAGTGTTGTTATACACGGAGTCACCTAGTGCAG	8090 fluorescence intensity (a.u.)
GGGGATTGGGAGTTTATACAAGGGAATTGATGGTGAGATTCGGAGTCACCTAGTGCAG	21000 fluorescence intensity (a.u.)
CAAATTCCACGTAATTTATAATCTAAATATATGGAGTAGACGGAGTCACCTAGTGCAG	23400 fluorescence intensity (a.u.)
CTGCACAGTTAATTAAAGGAAAACTGGCGAAAACCCGGCACGGAGTCACCTAGTGCAG	8360 fluorescence intensity (a.u.)
